Source: PubChem BioAssay (NCI)
“And” between values parts separate entries of the source, which are not always exact repeats. Equal entries are not always repeated.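 96-well plates; 48 h exposure; 5 concentrations. Endpoints by linear interpolation between flanking doses. Not reached: highest tested concentration assigned. GI50: concentration for 50% inhibition of growth. TGI denotes the concentration required for complete inhibition of growth.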

Tested on: NCI-H322M lung
Assay: NCI tumour cell line growth inhibition, 48 h

C=CCOC1=C(OC(C)=O)C(C2COC(C)(C)O2)OC1=O (configuration not stated)
TGI: > 100 µM

COc1ccc(-c2c(C#N)c(N)n(C3OC(COC(C)=O)C(OC(C)=O)C(OC(C)=O)C3OC(C)=O)c(=S)c2C#N)cc1 (configuration not stated)
GI50: 64.6 µM and 25.1 µM | TGI: > 100 µM and 67 µM

CSc1c(C#N)c(=O)n(N)c2n[nH]c(C)c12
TGI: > 100 µM

c1ccc(Oc2cnc3ccccc3n2)cc1
GI50: > 100 µM | TGI: > 100 µM

O=C1N(c2ccccc2)N=C2c3ccncc3C3=NN(c4ccccc4)C(=O)C123 (configuration not stated)
TGI: > 100 µM

CN(Cc1cccc(Cl)c1)c1ccc(CO)c(Cl)c1
GI50: 13.9 µM | TGI: 51.1 µM

CN1CCN(C(=S)N(C(=O)c2ccc(Cl)cc2)C2CCCCC2)CC1
TGI: > 100 µM

C[C@@H](Br)[C@@H]1CC[C@H]2c3[nH]c4ccccc4c3CCN2C1
TGI: > 100 µM

COc1ccc(OC)c2c1-c1nnnn1CCC2(C)C
TGI: > 100 µM

C[C@H](N)C(=O)Nc1ccc(-c2nc3ccccc3s2)cc1Cl
TGI: 27.1 µM

COc1ccc(-c2c3c(n(C4OC(COC(C)=O)C(OC(C)=O)C(OC(C)=O)C4OC(C)=O)c(=S)c2C#N)CCCC3)cc1 (configuration not stated)
TGI: > 100 µM

Cn1cc(C2=C(c3cn(CCCN/C(N)=N\[N+](=O)[O-])c4ccccc34)C(=O)NC2=O)c2ccccc21
GI50: 4.38 µM | TGI: 16.2 µM

CCN(CC)CCCNc1c2cc(OC)ccc2nc2cccc([N+](=O)[O-])c12
TGI: 0.414 µM

CCN(CC)[C@@H]1c2cc3c(cc2C(c2cc(OC)c(O)c(OC)c2)C2C(=O)CO[C@@H]21)OCO3 (some centres not stated)
TGI: > 100 µM

COC(=O)c1cc(OCc2cc(OCc3ccc(Br)cc3)cc(OCc3ccc(Br)cc3)c2)cc(OCc2cc(OCc3ccc(Br)cc3)cc(OCc3ccc(Br)cc3)c2)c1
TGI: > 100 µM

O=C(CCCN1CCC(Nc2ccc(F)cc2)(c2nnnn2C2CCCCC2)CC1)c1ccc(F)cc1
TGI: 19.1 µM

Nc1nc(-c2ccccc2Cl)cc(-c2ccc(Cl)cc2Cl)n1
GI50: 31.2 µM | TGI: > 100 µM

O=C1OC(/C=C/c2ccccc2)C(=O)C1=O (configuration not stated)
TGI: > 100 µM

OC(c1cc2c(Cl)cc(Cl)cc2c2cc(C(F)(F)F)ccc12)C1CCCCN1 (configuration not stated)
GI50: 1.58 µM | TGI: 3.13 µM

O=C(CN1CCOCC1)c1ccc2c(c1)oc(=O)n2CCN1CCCCC1
TGI: > 100 µM

COc1ccc(/C=C\c2cc(OC)c(OC(C)=O)c(OC)c2)cc1
TGI: > 100 µM

CC1(C)C(=O)C2(N)CCC1C2 (configuration not stated)
TGI: > 100 µM

O=c1n(CC2CO2)c2ccccc2n1CC1CS1 (configuration not stated)
TGI: > 100 µM

O=c1c(-c2nc3ccccc3[nH]2)cc2ccccc2n1Cc1cn(Cc2ccc(F)cc2)nn1
GI50: 0.421 µM | TGI: > 100 µM

O=C1OC(=O)C2C1C1(c3ccccc3)OC2(c2ccccc2)c2c(Br)c(Br)c(Br)c(Br)c21 (configuration not stated)
TGI: > 100 µM

COC(=O)CCC(=O)c1ccc2c(c1)CC1(Cc3ccccc3C1)C2
TGI: > 100 µM

CCOC(=O)C(/C=N/C(N)=S)=C(/O)c1ccccc1
TGI: > 100 µM

CC/C(=C(/c1ccc(Cl)cc1)c1ccc(OCCCN(C)C)cc1)c1ccc(OC)cc1
GI50: 6.43 µM | TGI: 13.2 µM

C[C@H](OC(=O)/C=C/c1ccc(O)c(O)c1)[C@H](C)OC(=O)/C=C/c1ccc(O)c(O)c1
TGI: 30.3 µM

Nc1c2c(c(O)c3c1=C(CO)C=N3)=NCCS2=O (configuration not stated)
GI50: 0.44 µM | TGI: 1.6 µM

O=C(O)c1cccc(F)c1C(=O)c1ccc2ccccc2c1
TGI: > 100 µM

c1ccc2c(c1)-c1nc3ccccc3cc1C2N1CCOCC1 (configuration not stated)
TGI: > 100 µM

CSc1nnc2n1-c1ccccc1SCC2
TGI: > 100 µM

O=C1/C=C/[C@@H](O)[C@@H]2C[C@@H](O)C[C@H]2/C=C/CCCCO1
GI50: 0.816 µM | TGI: 97.8 µM

COc1ccc(-c2nc3ccccc3c(=O)[nH]2)cc1OC
TGI: > 100 µM

CN(C)C=Nc1cccc2c1NSN2
TGI: > 100 µM

Cc1cc2c(C=O)[nH]nc2c(C#N)c1C
TGI: > 100 µM

O=C(/C=C/c1ccco1)c1cccc(Nc2nc(Nc3ccccc3)nc(Nc3ccccc3)n2)c1
GI50: 0.782 µM | TGI: > 100 µM

C/C(=N\Nc1nc2ccccc2[nH]1)c1ccc2ccccc2n1
TGI: 14.1 µM

Cc1c(OCc2cccc3ccccc23)ccc2c(=O)cc(S)oc12
TGI: > 100 µM

O=C1OCC(CN2CCC(n3c(=O)[nH]c4ccccc43)CC2)=C1c1ccccc1
TGI: 69.3 µM
